Test results published in article PMC4336329 (PLoS ONE, 2015).
In all, about 310,000 compounds went through this assay and about 2,200 (0.71%) showed an effect of 50% or more. The effect is printed as a negative number. This is one part of the list.

molecular target: human ether-à-go-go-related gene (hERG) potassium channel (human, UniProt Q12809); test: primary screen, population patch clamp on CHO cells stably expressing hERG
Sequence (Q12809 whole entry, looked up): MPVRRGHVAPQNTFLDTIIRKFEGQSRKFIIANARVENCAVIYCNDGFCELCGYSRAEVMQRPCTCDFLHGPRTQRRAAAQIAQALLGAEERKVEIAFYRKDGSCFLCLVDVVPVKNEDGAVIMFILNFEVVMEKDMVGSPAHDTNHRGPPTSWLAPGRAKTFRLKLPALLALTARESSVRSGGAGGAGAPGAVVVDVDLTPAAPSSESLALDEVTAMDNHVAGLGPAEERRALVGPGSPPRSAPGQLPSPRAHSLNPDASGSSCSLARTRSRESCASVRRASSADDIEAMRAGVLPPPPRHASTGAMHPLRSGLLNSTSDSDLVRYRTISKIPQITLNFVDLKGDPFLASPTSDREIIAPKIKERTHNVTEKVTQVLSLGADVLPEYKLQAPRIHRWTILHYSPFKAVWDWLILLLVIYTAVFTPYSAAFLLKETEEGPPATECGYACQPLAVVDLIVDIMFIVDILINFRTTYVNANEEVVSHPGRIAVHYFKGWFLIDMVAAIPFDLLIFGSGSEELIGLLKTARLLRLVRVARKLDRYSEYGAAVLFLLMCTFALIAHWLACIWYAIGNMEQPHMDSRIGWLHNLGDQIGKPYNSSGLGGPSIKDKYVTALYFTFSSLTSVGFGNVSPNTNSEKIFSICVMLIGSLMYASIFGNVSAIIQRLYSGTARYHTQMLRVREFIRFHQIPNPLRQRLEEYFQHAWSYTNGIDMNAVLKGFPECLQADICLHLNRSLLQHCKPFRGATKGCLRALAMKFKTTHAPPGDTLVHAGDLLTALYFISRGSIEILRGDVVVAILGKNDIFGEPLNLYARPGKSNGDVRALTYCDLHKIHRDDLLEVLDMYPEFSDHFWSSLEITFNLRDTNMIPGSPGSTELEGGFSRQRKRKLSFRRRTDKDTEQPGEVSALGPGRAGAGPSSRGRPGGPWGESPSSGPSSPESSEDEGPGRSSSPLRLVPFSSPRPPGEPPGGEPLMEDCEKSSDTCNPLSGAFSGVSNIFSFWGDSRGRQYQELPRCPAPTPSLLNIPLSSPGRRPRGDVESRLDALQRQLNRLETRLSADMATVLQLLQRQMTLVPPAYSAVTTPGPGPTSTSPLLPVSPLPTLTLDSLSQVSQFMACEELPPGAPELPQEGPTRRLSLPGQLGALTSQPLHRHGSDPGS

| SMILES | hERG current change (%, negative = inhibition) at 1uM [%] |
| --- | --- |
| CSc1cccc(NC(=O)c2[nH]c(C)c(C(C)=O)c2C)c1 | 0.678 |
| Cc1cc(C)c2cc(CN(CC3CCCO3)S(=O)(=O)c3ccc4c(c3)OCCO4)c(=O)[nH]c2c1 (centres unmarked) | 5.62 |
| CCN1CCN(C(=S)Nc2ccc(Cl)cc2)CC1 | -4.98 |
| COC(=O)c1c(-c2cccs2)csc1NC(=O)CN1CCOCC1 | -17.5 |
| CC(C)(C)[C@@H]1C=C(C(=O)N2CCN(Cc3ccccc3)CC2)O[C@H](OCc2ccc(CO)cc2)C1 | -4.2 |
| O=C(/C=C1\NC2(CCCC2)Cc2ccccc21)N1CCOCC1.O=S(=O)(O)O | 3.19 |
| O=C(CSc1nnc2ccc(-c3ccc(F)cc3)nn12)N1CCOCC1 | 10.7 |
| COc1cccc(NC(=O)CSc2nc3c(sc4ccccc43)c(=O)n2CCCN2CCCC2)c1 | -3.14 |
| O=C(NC1CCSc2ccccc21)c1ccc(Cl)c(S(=O)(=O)N2CCOCC2)c1 (centres unmarked) | 12.9 |
| O=C(NC(NCCCN1CCOCC1)(C(F)(F)F)C(F)(F)F)C1CCCCC1 | 9.75 |
| CC(C)c1ccc(NC(=O)CCNS(=O)(=O)c2cc(Br)cnc2N)cc1 | 4.93 |
| O=C(NCCCn1ccnc1)C1CCCN(S(=O)(=O)c2ccc(F)cc2)C1 (centres unmarked) | 16.3 |
| C=CCN1C(=O)/C(=C/c2ccc(OCC(=O)O)cc2)S/C1=N/c1nccs1 | 2 |
| CCO[C@@H]1OC(C(N)=O)=C[C@H](C2CC2)[C@H]1CCCO | 7.15 |
| CCN(CC)c1ncnc2c1cnn2Cc1ccc(Cl)cc1 | -3.07 |
| COc1cccc(CNC(=O)C(=O)NCCC2CCCCN2S(=O)(=O)c2cccs2)c1 (centres unmarked) | 11.9 |
| CCOc1cc(N(CC)CC)ccc1/C=C(/C#N)c1nc2ccccc2[nH]1 | 9.62 |
| CCc1nnc2sc(-c3cc(-c4ccccc4)nc4ccccc34)nn12 | 4.91 |
| O=C(Nc1ccc(S(=O)(=O)N2CCCC2)cc1)c1cc(=O)c2ccccc2o1 | 2.93 |

| SMILES | hERG current change (%, negative = inhibition) at 1uM [%] |
| --- | --- |
| Cc1onc(-c2ccccc2)c1C(=O)N1CCN(C/C=C/c2ccccc2)CC1.Cl | -1.77 |
| CN(C)c1cc[n+](CC[n+]2ccc(N(C)C)cc2)cc1.[Br-] | 13.3 |
| CC(/C=C/c1ccccc1)=N\NC(=O)Cn1nc(C)cc1C | 8.37 |
| O=C(OCC(=O)N1CCC(Cc2ccccc2)CC1)c1cc(Cl)ccc1O | 10.9 |
| CCC(=O)c1ccc(N2CCCCCC2)c(F)c1 | 15.6 |
| O=S(=O)(NC(=S)NC1CCCCC1)c1ccc(Cl)cc1 | 21 |
| Cc1cccc(N2CCN(C(=O)COc3ccc4ccc(=O)oc4c3)CC2)c1C | 10.5 |
| Cc1ccc(-n2cnnn2)c(S(=O)(=O)N2CCOCC2)c1 | 5.69 |
| O=C(Nc1cccc2cccnc12)c1cccc(N2C(=O)CCC2=O)c1 | 16.2 |
| COc1ccc(CCC(=O)N2CCCc3ccccc32)cc1 | 17.3 |
| COC(=O)c1ccccc1NC(=O)c1ccc(COc2cccc3ccccc23)o1 | 2.98 |
| Cc1ccc(NC(=O)CSc2ccc(-c3ccco3)nn2)cc1 | 5.58 |
| COC(=O)c1ccc2c(=O)n(CC3CCCO3)c(SCC(=O)Nc3ccc(OC)cc3OC)nc2c1 (centres unmarked) | 10.9 |
| CCOC(=O)c1c(C)n(C)c2ccc(OCCN(C)C)cc12 | 5.87 |
| CCn1ccnc1CNC(=O)c1ccc2oc(C(C)C)nc2c1 | 23.6 |
| Cc1ccc(NC(=O)C2CC(=O)N(Cc3ccccc3)C2)nc1 (centres unmarked) | 14.6 |
| CCOC(=O)c1c(NC(=O)C(NCCN(C)C)c2ccccc2)sc2c1CCCC2 (centres unmarked) | -77.2 |
| CCOc1ccc(CCNC(=O)C2CCCN(S(=O)(=O)N3CC(C)CC(C)C3)C2)cc1OCC (centres unmarked) | 2.12 |
| COc1cccc(-c2nn(-c3ccccc3)cc2CN(C)Cc2ccon2)c1 | 11.3 |

| SMILES | hERG current change (%, negative = inhibition) at 1uM [%] |
| --- | --- |
| COc1ccc(CN(C(=O)c2ccco2)C2CCS(=O)(=O)C2)cc1 (centres unmarked) | 5.25 |
| CN(C)CCNc1nc(-c2ccccc2)nnc1C(F)(F)F | 4.22 |
| CCOC1OC(=O)C(Cl)=C1Nc1ccc(C)cc1 (centres unmarked) | 9.29 |
| CCOC(=O)c1c[nH]c2nc(C)ccc2c1=O | 19.6 |
| Cn1c(=O)n(C)c2cc([N+](=O)[O-])c(N3CCN(C(=O)c4ccccc4Cl)CC3)cc21 | 5.19 |
| CC(c1ccccc1)C1CC(=O)N(C2CCCCC2)C1=O (centres unmarked) | 2.3 |
| Cc1nc2ccccn2c1P(=S)(N1CCCCC1)N1CCCCC1 | 9.33 |
| Cc1c(N(C)S(=O)(=O)c2cc(C(=O)N3CCCC3)ccc2Cl)c(=O)n(-c2ccccc2)n1C | 8.15 |
| C=CCOC(=O)COc1ccc2c(C)c(CC)c(=O)oc2c1 | 10.2 |
| COc1ccc(CCC(=O)N(C)CC(=O)Nc2ccc(N3CCOCC3)cc2)cc1 | -2.03 |
| OCC[C@@H]1C[C@H](O)[C@@H](O)[C@]2(CCCO2)O1 | 19.7 |
| OCc1ccccc1N=c1ssnc1Cl | 17 |
| Cc1ccc(C(=O)c2ccc([N+](=O)[O-])cc2)c(C)c1 | 12.9 |
| O=[N+]([O-])c1cccnc1-n1cnc2ccccc21 | 5.48 |
| COc1ccc(N(CC(=O)Nc2ccc(F)c(Cl)c2)S(=O)(=O)c2c(C)noc2C)cc1 | -14.7 |
| Cc1ccc2c(-c3ccc([N+](=O)[O-])cc3)cc(=O)[nH]c2c1 | 3.26 |
| O=C(c1ccccc1O)N1N=C(C(F)(F)F)CC1(O)c1ccc([N+](=O)[O-])cc1 (centres unmarked) | -4.67 |
| CCN(Cc1ccccc1)C(=O)c1oc2ccc(S(=O)(=O)N3CCOCC3)cc2c1C | 11.3 |
